The other results are listed elsewhere or left out.
What was measured:
Experiment in all cases: glycan array binding signal (z-score within array); higher = stronger binding
Settings in all cases: glycan notation: IUPAC condensed, linker removed
[1] = biological target: GalNAc(b1-3)Gal(a1-4)Gal(b1-4)GlcNAc
Outline: (§1)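 Negative Z-scores can be read as non-binding. The Z-score is calculated within each array and then averaged across arrays of one protein sequence at different concentrations or buffers and across linkers. Arrays, 3228 in all, were curated from the Consortium for Functional Glycomics database and kept only where the protein sequence was available.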

[2] = biological target: GalNAc(b1-3)Gal(a1-4)Gal(b1-4)GlcNAc(b1-3)Gal(b1-4)Glc
Outline: as §1

[3] = biological target: GalNAc(b1-3)Gal(a1-6)Gal(b1-4)Glc
Outline: as §1

GalNAc(b1-3)GalNAc = biological target: GalNAc(b1-3)GalNAc
Outline: as §1

GalNAc(b1-4)Gal(b1-4)Glc = biological target: GalNAc(b1-4)Gal(b1-4)Glc
Outline: as §1

GalNAc(b1-4)GlcNAc = biological target: GalNAc(b1-4)GlcNAc
Outline: as §1

[4] = biological target: GalNAc(b1-4)GlcNAc(b1-2)Man(a1-3)[GalNAc(b1-4)GlcNAc(b1-2)Man(a1-6)]Man(b1-4)GlcNAc(b1-4)GlcNAc
Outline: as §1

GalNAc(b1-6)GalNAc = biological target: GalNAc(b1-6)GalNAc
Outline: as §1

Glc(a1-4)Glc = biological target: Glc(a1-4)Glc
Outline: as §1

[5] = biological target: Glc(a1-4)Glc(a1-4)Glc(a1-4)Glc
Outline: as §1

Glc(a1-6)Glc(a1-6)Glc = biological target: Glc(a1-6)Glc(a1-6)Glc
Outline: as §1

[6] = biological target: Glc(a1-6)Glc(a1-6)Glc(a1-6)Glc
Outline: as §1

Glc(b1-4)Glc = biological target: Glc(b1-4)Glc
Outline: as §1

Glc(b1-6)Glc = biological target: Glc(b1-6)Glc
Outline: as §1

GlcA(b1-3)Gal = biological target: GlcA(b1-3)Gal
Outline: as §1

GlcA(b1-3)GlcNAc = biological target: GlcA(b1-3)GlcNAc
Outline: as §1

GlcA(b1-6)Gal = biological target: GlcA(b1-6)Gal
Outline: as §1

[7] = biological target: GlcNAc(a1-3)Gal(b1-4)GlcNAc
Outline: as §1

[8] = biological target: GlcNAc(a1-4)Gal(b1-3)GlcNAc
Outline: as §1

[9] = biological target: GlcNAc(a1-4)Gal(b1-4)GalNAc
Outline: as §1

[10] = biological target: GlcNAc(a1-4)Gal(b1-4)GlcNAc
Outline: as §1

[11] = biological target: GlcNAc(a1-4)Gal(b1-4)GlcNAc(b1-3)Gal(b1-4)Glc
Outline: as §1

[12] = biological target: GlcNAc(a1-4)Gal(b1-4)GlcNAc(b1-3)Gal(b1-4)GlcNAc
Outline: as §1

[13] = biological target: GlcNAc(a1-4)Gal(b1-4)GlcNAc(b1-3)Gal(b1-4)GlcNAc(b1-3)Gal(b1-4)GlcNAc
Outline: as §1

[14] = biological target: GlcNAc(a1-4)Gal(b1-4)GlcNAc(b1-3)Gal(b1-4)[Fuc(a1-3)]GlcNAc(b1-3)Gal(b1-4)[Fuc(a1-3)]GlcNAc
Outline: as §1

[15] = biological target: GlcNAc(a1-6)Gal(b1-4)GlcNAc
Outline: as §1

[16] = biological target: GlcNAc(b1-2)Gal(b1-3)GalNAc
Outline: as §1

[17] = biological target: GlcNAc(b1-2)Man(a1-3)[GlcNAc(b1-2)Man(a1-6)]Man(b1-4)GlcNAc(b1-4)GlcNAc
Outline: as §1

[18] = biological target: GlcNAc(b1-2)Man(a1-3)[GlcNAc(b1-2)Man(a1-6)]Man(b1-4)GlcNAc(b1-4)[Fuc(a1-6)]GlcNAc
Outline: as §1

[19] = biological target: GlcNAc(b1-2)Man(a1-3)[GlcNAc(b1-4)][GlcNAc(b1-2)Man(a1-6)]Man(b1-4)GlcNAc(b1-4)GlcNAc
Outline: as §1

[20] = biological target: GlcNAc(b1-2)[GlcNAc(b1-4)]Man(a1-3)[GlcNAc(b1-2)Man(a1-6)]Man(b1-4)GlcNAc(b1-4)GlcNAc
Outline: as §1

[21] = biological target: GlcNAc(b1-2)[GlcNAc(b1-4)]Man(a1-3)[GlcNAc(b1-4)][GlcNAc(b1-2)Man(a1-6)]Man(b1-4)GlcNAc(b1-4)GlcNAc
Outline: as §1

[22] = biological target: GlcNAc(b1-2)[GlcNAc(b1-4)]Man(a1-3)[GlcNAc(b1-4)][GlcNAc(b1-2)[GlcNAc(b1-6)]Man(a1-6)]Man(b1-4)GlcNAc(b1-4)GlcNAc
Outline: as §1

[23] = biological target: GlcNAc(b1-2)[GlcNAc(b1-6)]Man(a1-6)[GlcNAc(b1-2)Man(a1-3)]Man(b1-4)GlcNAc(b1-4)GlcNAc
Outline: as §1

[24] = biological target: GlcNAc(b1-2)[GlcNAc(b1-6)]Man(a1-6)[GlcNAc(b1-2)Man(a1-3)][GlcNAc(b1-4)]Man(b1-4)GlcNAc(b1-4)GlcNAc
Outline: as §1

GlcNAc(b1-3)Gal = biological target: GlcNAc(b1-3)Gal
Outline: as §1

[25] = biological target: GlcNAc(b1-3)Gal(b1-3)GalNAc
Outline: as §1

GlcNAc(b1-3)Gal(b1-4)Glc = biological target: GlcNAc(b1-3)Gal(b1-4)Glc
Outline: as §1

[26] = biological target: GlcNAc(b1-3)Gal(b1-4)GlcNAc
Outline: as §1

[27] = biological target: GlcNAc(b1-3)Gal(b1-4)GlcNAc(b1-3)Gal(b1-4)GlcNAc
Outline: as §1

GlcNAc(b1-3)GalNAc = biological target: GlcNAc(b1-3)GalNAc
Outline: as §1

GlcNAc(b1-3)Man = biological target: GlcNAc(b1-3)Man
Outline: as §1

[28] = biological target: GlcNAc(b1-3)[GlcNAc(b1-4)][GlcNAc(b1-6)]GlcNAc
Outline: as §1

[29] = biological target: GlcNAc(b1-3)[GlcNAc(b1-6)]Gal(b1-4)GlcNAc
Outline: as §1

[30] = biological target: GlcNAc(b1-3)[GlcNAc(b1-6)]GalNAc
Outline: as §1

B1: BC2L-A (Burkholderia cenocepacia), Q1BKJ8_BURCA (protein)
chain: ADSQTSSNRAGEFSIPPNTDFRAIFFANAAEQQHIKLFIGDSQEPAAYHKLTTRDGPREATLNSGNGKIRFEVSVNGKPSATDARLAPINGKKSDGSPFTVNFGIVVSEDGHDSDYNDGIVVLQWPIG
[1]
  glycan array binding signal (z-score): -0.275
[2]
  glycan array binding signal (z-score): -0.3
[3]
  glycan array binding signal (z-score): -0.219
GalNAc(b1-3)GalNAc
  glycan array binding signal (z-score): -0.282
GalNAc(b1-4)Gal(b1-4)Glc
  glycan array binding signal (z-score): -0.221
GalNAc(b1-4)GlcNAc
  glycan array binding signal (z-score): -0.291
[4]
  glycan array binding signal (z-score): -0.291
GalNAc(b1-6)GalNAc
  glycan array binding signal (z-score): -0.219
Glc(a1-4)Glc
  glycan array binding signal (z-score): 0.033
[5]
  glycan array binding signal (z-score): -0.221
Glc(a1-6)Glc(a1-6)Glc
  glycan array binding signal (z-score): 0.138
[6]
  glycan array binding signal (z-score): -0.221
Glc(b1-4)Glc
  glycan array binding signal (z-score): -0.267
Glc(b1-6)Glc
  glycan array binding signal (z-score): -0.2
GlcA(b1-3)Gal
  glycan array binding signal (z-score): -0.15
GlcA(b1-3)GlcNAc
  glycan array binding signal (z-score): -0.297
GlcA(b1-6)Gal
  glycan array binding signal (z-score): -0.287
[7]
  glycan array binding signal (z-score): -0.197
[8]
  glycan array binding signal (z-score): -0.292
[9]
  glycan array binding signal (z-score): -0.296
[10]
  glycan array binding signal (z-score): -0.289
[11]
  glycan array binding signal (z-score): -0.295
[12]
  glycan array binding signal (z-score): -0.288
[13]
  glycan array binding signal (z-score): -0.283
[14]
  glycan array binding signal (z-score): -0.127
[15]
  glycan array binding signal (z-score): 0.141
[16]
  glycan array binding signal (z-score): 0.206
[17]
  glycan array binding signal (z-score): -0.229
[18]
  glycan array binding signal (z-score): -0.099
[19]
  glycan array binding signal (z-score): -0.19
[20]
  glycan array binding signal (z-score): -0.091
[21]
  glycan array binding signal (z-score): -0.219
[22]
  glycan array binding signal (z-score): -0.221
[23]
  glycan array binding signal (z-score): -0.17
[24]
  glycan array binding signal (z-score): -0.167
GlcNAc(b1-3)Gal
  glycan array binding signal (z-score): 0.176
[25]
  glycan array binding signal (z-score): -0.29
GlcNAc(b1-3)Gal(b1-4)Glc
  glycan array binding signal (z-score): -0.285
[26]
  glycan array binding signal (z-score): -0.275
[27]
  glycan array binding signal (z-score): -0.293
GlcNAc(b1-3)GalNAc
  glycan array binding signal (z-score): -0.088
GlcNAc(b1-3)Man
  glycan array binding signal (z-score): -0.299
[28]
  glycan array binding signal (z-score): 0.262
[29]
  glycan array binding signal (z-score): -0.186
[30]
  glycan array binding signal (z-score): -0.128

Source: the supplement of paper PMC8728848
